Data reported in IntAct's records for PubMed 24316379.

B1: Myeloid differentiation primary response protein MyD88 (Homo sapiens), Q99836-1 (parent)
chain: MAAGGPGAGSAAPVSSTSSLPLAALNMRVRRRLSLFLNVRTQVAADWTALAEEMDFEYLEIRQLETQADPTGRLLDAWQGRPGASVGRLLELLTKLGRDDVLLELGPSIEEDCQKYILKQQQEEAEKPLQVAAVDSSVPRTAELAGITTLDDPLGHMPERFDAFICYCPSDIQFVQEMIRQLEQTNYRLKLCVSDRDVLPGTCVWSIASELIEKRCRRMVVVVSDDYLQSKECDFQTKFALSLSPGAHQKRLIPIKYKAMKKEFPSILRFITVCDYTNPCTKSWFWTRLAKALSLP
B2: Myeloid differentiation primary response protein MyD88 (Homo sapiens), Q99836-1 (parent)
chain: B1 chain
partner: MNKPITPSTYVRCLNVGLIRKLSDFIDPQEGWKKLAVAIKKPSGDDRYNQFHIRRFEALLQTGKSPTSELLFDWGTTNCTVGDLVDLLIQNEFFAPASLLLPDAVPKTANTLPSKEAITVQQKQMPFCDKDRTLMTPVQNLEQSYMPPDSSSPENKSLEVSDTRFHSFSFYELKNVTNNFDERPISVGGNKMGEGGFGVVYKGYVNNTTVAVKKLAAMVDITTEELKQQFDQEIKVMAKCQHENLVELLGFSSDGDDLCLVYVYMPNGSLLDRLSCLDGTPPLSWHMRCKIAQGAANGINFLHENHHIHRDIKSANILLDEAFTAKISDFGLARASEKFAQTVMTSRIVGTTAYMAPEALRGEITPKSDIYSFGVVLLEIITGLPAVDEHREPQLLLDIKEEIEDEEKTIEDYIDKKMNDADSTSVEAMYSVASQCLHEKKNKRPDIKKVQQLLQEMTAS

Variants of: B1
Conditions: with p58753-2 TIRAP

Variant	effect of a mutation on the interaction
R196C	decreasing interaction strength

Variants of: B2
Conditions: with irak4_human IRAK4, Q9NWZ3

Variant	effect of a mutation on the interaction
R98C	disrupting interaction strength
